For assay [1], the system named is HSkMC (human skeletal muscle cells). As to the kind of experiment: cytotoxicity call (relative viability < 0.9). To be noted: 10 µM.
Assay [2] concerns HepG2. As to the kind of experiment: cytotoxicity call (relative viability < 0.9). Conditions: 10 µM.
Assay [3] concerns S. aureus RN4220. As to the kind of experiment: growth inhibition call (relative growth <= 0.2). Conditions: 50 µM.

This is an account of results in the antibiotic and cytotoxicity screens of Wong et al. (2023).

The other results are listed elsewhere or left out.

With `Cc1ccc(S(=O)(=O)N(C)C[C@H]2Oc3ncc(C#CCC(C)C)cc3C(=O)N([C@H](C)CO)C[C@@H]2C)cc1`, the cytotoxicity call in assay [1] and in assay [2] was “inactive” in each case. Besides, in assay [3], the growth inhibition call is “inactive”.

In the case of `C[C@H]1CCCCO[C@@H](CN(C)C(=O)C2CCCCC2)[C@@H](C)CN([C@@H](C)CO)C(=O)c2cc(NC(=O)NC3CCCCC3)ccc2O1`, the cytotoxicity call in assay [1] and in assay [2] was “inactive” each time. For the same compound, the growth inhibition call in assay [3] is “inactive”.

With `C[C@@H]1CN([C@@H](C)CO)C(=O)Cc2cc(NC(=O)NC3CCCCC3)ccc2O[C@@H]1CN(C)C(=O)Nc1cccc2ccccc12`, the cytotoxicity call in assay [1] and in assay [2] was “inactive” in each case. The growth inhibition call in assay [3] was “inactive”.

On to `Cc1ccc(OCCn2c(CC(C)(C)C)nc3ccccc32)cc1`, for which the cytotoxicity call in assay [1] and in assay [2] was “inactive” in each case. The growth inhibition call in assay [3] is “inactive”.

As to `C[C@H](CO)N1C[C@H](C)[C@@H](CN(C)C(=O)Nc2ccc3c(c2)OCO3)Oc2c(NC(=O)c3ccncc3)cccc2C1=O`, the cytotoxicity call in assay [1] and in assay [2] was “inactive” throughout. Also, the growth inhibition call in assay [3] is “inactive”.

Take `C[C@@H]1CN([C@@H](C)CO)C(=O)c2cc(NC(=O)NC3CCCCC3)ccc2O[C@@H]1CN(C)S(=O)(=O)c1cn(C)cn1`: the cytotoxicity call in assay [1] and in assay [2] was “inactive” each time. Further, the growth inhibition call in assay [3] was “inactive”.

For the compound `CN(C)Cc1cn(CC[C@@H]2CC[C@H](N)[C@H](CO)O2)nn1`, the cytotoxicity call in assay [1] and in assay [2] was “inactive” in each case. For the same compound, in assay [3], the growth inhibition call was “inactive”.

As to `C[C@@H]1CN([C@@H](C)CO)C(=O)c2cc(NC(=O)c3ccccc3)ccc2O[C@@H](C)CCCCO[C@H]1CN(C)C(=O)NC1CCCCC1`, the cytotoxicity call in assay [1] and in assay [2] was “inactive” in each case. Besides, in assay [3], the growth inhibition call is “inactive”.

As to `C[C@H](CO)N1C[C@H](C)[C@H](CN(C)S(=O)(=O)c2ccc(F)cc2)OCCCC[C@H](C)Oc2ccc(NC(=O)CCCCCC(=O)Nc3ccccc3N)cc2C1=O`, the cytotoxicity call in assay [1] and in assay [2] was “inactive” each time. The growth inhibition call in assay [3] was “inactive”.

As to `C[C@H]1CN([C@@H](C)CO)C(=O)c2cccc(NS(=O)(=O)c3cn(C)cn3)c2O[C@@H]1CN(C)C(=O)Nc1ccc(F)cc1`, the cytotoxicity call in assay [1] and in assay [2] was “inactive” in each case. In assay [3], the growth inhibition call is “inactive”.

For `NC(=O)c1ncn([C@@H]2O[C@H](CO)[C@@H](O)[C@H]2O)c1N`, the cytotoxicity call in assay [1] and in assay [2] was “inactive” in each case. Also, the growth inhibition call in assay [3] is “inactive”.

As to `C[C@H](CO)N1C[C@H](C)[C@H](CN(C)S(C)(=O)=O)Oc2ccc(NS(=O)(=O)c3cccs3)cc2CC1=O`, the cytotoxicity call in assay [1] and in assay [2] was “inactive” each time. The growth inhibition call in assay [3] is “inactive”.

Regarding `CCCN(C)C[C@H]1OCCCC[C@H](C)Oc2ccc(NC(=O)c3ccccc3)cc2C(=O)N([C@@H](C)CO)C[C@H]1C`, the cytotoxicity call in assay [1] and in assay [2] was “inactive” each time. In assay [3], the growth inhibition call is “inactive”.

Take `Cc1cc2nc3ccc(N(C)C)cc3[s+]c2cc1N.[Cl-]`: the cytotoxicity call in assay [1] and in assay [2] was “active” each time. For the same compound, the growth inhibition call in assay [3] is “inactive”.

As to `COc1ccc(S(=O)(=O)Nc2ccc3c(c2)C(=O)N([C@@H](C)CO)C[C@H](C)[C@@H](CN(C)C(=O)C2CCCCC2)OCCCC[C@H](C)O3)cc1`, the cytotoxicity call in assay [1] and in assay [2] was “inactive” each time. The growth inhibition call in assay [3] is “inactive”.

As to `CCc1ccc(OC[C@@H](O)CN)cc1`, the cytotoxicity call in assay [1] and in assay [2] was “inactive” each time. Moreover, the growth inhibition call in assay [3] is “inactive”.

Take `CCS(=O)(=O)NCC[C@H]1CC[C@H](NC(=O)C2CC2)[C@H](CO)O1`: the cytotoxicity call in assay [1] and in assay [2] was “inactive” throughout. In assay [3], the growth inhibition call is “inactive”.

On to `C[C@H]1CN([C@@H](C)CO)C(=O)c2cc(C#Cc3ccccc3)cnc2O[C@@H]1CN(C)C(=O)CCN1CCCCC1`, for which the cytotoxicity call in assay [1] is “inactive”. Further, the cytotoxicity call in assay [2] was “active”. The growth inhibition call in assay [3] was “inactive”.

In the case of `CC(C)(C)C(=O)C[n+]1cccc(C(N)=O)c1`, the cytotoxicity call in assay [1] and in assay [2] was “inactive” throughout. In assay [3], the growth inhibition call is “inactive”.

As for `C[C@H]1CN([C@@H](C)CO)C(=O)CCCn2cc(nn2)CO[C@H]1CN(C)Cc1ccc(C(=O)Nc2ccccc2N)cc1`, the cytotoxicity call in assay [1] and in assay [2] was “inactive” throughout. The growth inhibition call in assay [3] was “inactive”.

As to `CC(C)NC(=O)Nc1cccc2c1O[C@H](CN(C)C(=O)NC1CCCCC1)[C@@H](C)CN([C@@H](C)CO)C2=O`, the cytotoxicity call in assay [1] and in assay [2] was “inactive” in each case. In addition, the growth inhibition call in assay [3] is “inactive”.

For `C[C@@H]1CN([C@@H](C)CO)S(=O)(=O)c2ccc(-c3cccc(F)c3)cc2O[C@@H]1CN(C)S(C)(=O)=O`, the cytotoxicity call in assay [1] and in assay [2] was “inactive” in each case. Also, the growth inhibition call in assay [3] was “inactive”.

For the compound `CC(C)C#Cc1cnc2c(c1)C(=O)N([C@H](C)CO)C[C@H](C)[C@@H](CN(C)C(=O)c1ccc3c(c1)OCO3)O2`, the cytotoxicity call in assay [1] and in assay [2] was “inactive” throughout. In addition, the growth inhibition call in assay [3] was “inactive”.

With `C[C@@H]1CCCCO[C@@H](CN(C)C(=O)Nc2ccc(C(F)(F)F)cc2)[C@H](C)CN([C@H](C)CO)C(=O)c2cc(NS(=O)(=O)c3ccccc3)ccc2O1`, the cytotoxicity call in assay [1] was “inactive”. Further, the cytotoxicity call in assay [2] is “active”. The growth inhibition call in assay [3] is “inactive”.

In the case of `O=C(C[C@H]1C[C@H]2c3cc(NC(=O)C4CCOCC4)ccc3O[C@H]2[C@@H](CO)O1)NCc1ccc(Cl)cc1`, the cytotoxicity call in assay [1] and in assay [2] was “inactive” each time. Besides, the growth inhibition call in assay [3] was “inactive”.

For `C[C@@H]1CCCCO[C@@H](CN(C)Cc2ccc3c(c2)OCO3)[C@H](C)CN([C@@H](C)CO)C(=O)c2cc(NC(=O)Cc3ccccc3)ccc2O1`, the cytotoxicity call in assay [1] and in assay [2] was “inactive” in each case. Besides, the growth inhibition call in assay [3] was “inactive”.

On to `Cc1noc(C)c1NC(=O)Nc1ccc2c(c1)C(=O)N([C@H](C)CO)C[C@@H](C)[C@H](CN(C)S(=O)(=O)c1ccccc1)O2`, for which the cytotoxicity call in assay [1] and in assay [2] was “inactive” throughout. The growth inhibition call in assay [3] was “inactive”.

With `COC(=O)[C@H]1CCCNC1=O`, the cytotoxicity call in assay [1] and in assay [2] was “inactive” each time. Besides, the growth inhibition call in assay [3] is “inactive”.
